Results reported in the RNAGym collection of RNA variant scans (doi:10.1093/nar/gkz1192).
Read counts are not given, so values of variants with three or more changes are uncertain.

B1: CPEB3 Ribozyme (parent)
chain: UAACAGGGGGCCACAGCAGAAGCGUUCACGUCGCAGCCCCUGUCAGAUUCUGGUGAAUCUGCGAAUUCUGCUGUAUAUCUC

Variants of: B1
Test: self-cleavage, relative activity (ratio to wild type); higher = more cleavage; in vitro, sequencing
Summary of the method: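 CPEB3 self-cleaving ribozyme mutant libraries were made by rounds of error-prone PCR, barcoded, and transcribed in vitro with T7 RNA polymerase for 5 hours at 37°C. Cleavage occurred during transcription and a 15 min DNase I step before EDTA stop. RNAs were reverse transcribed with template switching and Illumina-sequenced, with DNA sequencing mapping barcodes to variants. Relative activity is the variant's cleaved/total read fraction divided by wild type's (minimum 5 reads), averaged across three batches.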

Variant | self-cleavage
UAACAGGGGGCCACUGCAGAAGCGUUCACGUCGCAGCCCCUGUCAGAAUCUGGUGGGUCUGCGAAUUCUGCUGUAUAUCCC | 0.11
UAACAGGGGGCCACUGCAGAAGCGUUCACGUCGCAGCCCCUGUCAGAUCCUGGUGAAUCCGCGAAUUCUGCUGUAUAUCUC | 0.13
UAACAGGGGGCCACUGCAGAAGCGUACACGUCGCAGCCCCUGUCAGAUUCUGGUGAAUCUGCAAAUUCUGCUGUAUAUCUC | 0.21
UAACAGGGGGCCACUGCAGAAGCGUUCACGUCGCAGCCCCAGUCAGAUUCUUGUGAAUCUGCGAAUUCUGCUGUAUAUCUC | 0.19
UAACAGGGGGCCACUGCAGAAGCGUUCACGUCGCAGCCCCUGUCAGAUUCUGGAGGAUCUGCGAAUUCUGCUGUAUAUCCC | 0.56
UAACAGGGGGCCACUGCAGAAGCGUUCACGUCGCAGCCCCUGCCAGACUCUGGUGAAUCUGCGAAUUCUGCUGUAUAUCUC | 0.39
UAACAGGGGGCCACUGCAGAAGCGUGCACGACGCAGCCCCUGUCAGAUUCUGGUGAAUCUGCGAUUUCUGCUGUAAAUCUC | 0.41
UAACAGGGGGCCACUGCAGAAGCGCUCACGUCGCAGCCCCUGCCGGAUUCUGGUGAAUCUGCGAAUUCUGUUGUAUAUCUC | 0.09
UAACAGGGGGCCACUGCAGAAGCGUCCACGUCGCAGCCCCAGUCAGAUUCUGGUGAAUCUGCGAAUUCUGCUGUAUAUCUC | 0.15
UAACAGGGGGCCACUGCAGAAGCGGUCACGUCGCAGCCCCUGUCAGAUUCUGGUGAUUCUGCGGAUUCAGCUGUAUAUCUC | 0.1
UAACAGGGGGCCACUGCAGAAGCGUGCACGUCGCAGCCCCUGUCAGAUUCAGGUGAAUCUGCGAAUUCUGCUGUAUAUCUC | 0.17
UAACAGGGGGCCACUGCAGAAGCGUUCACGACGCAGCCCCUGUCAGAUUCCGGUGAAUCUGCGAAUUCCGCUGUAUAUCUC | 0.14
UAACAGGGGGCCACUGCAGAAGCGUCCACGUCGCAGCCCCUGUCAGAUUCUGGUGAAUCUGCGAAUCCUGCUGUAUAUCUC | 0.19
UAACAGGGGGCCACUGCAGAAGCGUUCACGUCGCAGCCCCUGUCAGAUUCUGGAGAAUCUGCGAAUUCUGCUGUACAUCCC | 1.14
UAACAGGGGGCCACUGCAGAAGCGUUCACGUCGCAGCCCCAGUCAGAUUCUGGUGGAUCUGCGCAUUCUGCUGUAUUUCCC | 0.06
UAACAGGGGGCCACUGCAGAAGCGUUCACGUCGCAGCCCCUGUCAGAUUCUGGUGAAUCUGCGAAUCCUGCUGUAUACCUC | 0.11
UAACAGGGGGCCACUGCAGAAGCGCCCACGUCGCAGCCCCUGUCAGAUUCUGGUGAAUCUGCGAGUUCUGCUGUAUAUCUC | 0.07
UAACAGGGGGCCACUGCAGAAGCGUUCACGUCGCAGCCCCUGUCAGAUUCUGGAGAAUCUGCAAACUCUGCUGUAUAUCUC | 0.27
UAACAGGGGGCCACUGCAGAAGCGUUCACGACGCAGCCCCUGUCAGAUUCUGGAGGAUCUGCGGAUUCUGCUGUAUAUCUC | 0.14
UAACAGGGGGCCACUGCAGAAGCGUCCACGUCGCAGCCCCUGUCUGAUUCUGGUGAAUCCGCGAAUUCUGCUGUAUAUCUC | 0.42
UAACAGGGGGCCACUGCAGAAGCGUUCACGUCGCAGCCCCUGUCAGACCCUGGUGAAUCUGCGGAUUCUGCUGUAUAUCCC | 0.06
UAACAGGGGGCCACUGCAGAAGCGUUCACGUCGCAGCCCCUGUCAGAAUCUGGUGAAUCUGCGAAUCCUGCUGUAUACCUC | 0.2
UAACAGGGGGCCACUGCAGAAGCGUUCACGCCGCAGCCCCCGUCAGAUUCUGGUGAAUCUGCGAAUUCGGCUGUAUAUCUC | 0.17

Variant | self-cleavage
UAACAGGGGGCCACUGCAGAAGCGUUCACGUCGCAGCCCCUGCCAGAUUCUGGUGAAACCGCGAAUUCUGCUGUAUAUCUC | 0.12
UAACAGGGGGCCACUGCAGAAGCGUUCACGUCGCAGCCCCUGUCAGACUCUGGUGAAUCUGCGAAUUCUGUUGUAUAUCUC | 0.13
UAACAGGGGGCCACUGCAGAAGCGUUCACGUCGCAGCCCCUGUCAGAUUCUGGUGAAUCAGCAUAUUCUGCUGUAUACCUC | 0.12
UAACAGGGGGCCACUGCAGAAGCGUCCACGUCGCAGCCCCUGUCAGAUUCUGGUGAGUCUGCGAAUUUUGCUGUAUAUCUC | 0.19
UAACAGGGGGCCACUGCAGAAGCGUUCACGUCGCAGCCCCCGACAGAUUCUGGUGAAUCUGCGAAUUCUGCUGUAUAUCUC | 0.49
UAACAGGGGGCCACUGCAGAAGCGUUCACGUCGCAGCCCCCGCCAGAUUCUGGUGAAUCUGCGAAUUCUGCUGUAUAUCUC | 0.12
UAACAGGGGGCCACUGCAGAAGCGUUCACGUCGCAGCCCCUGUCAGAUUCUGGUGAAUCUGCGAAUACUGCGGCAUAUCCC | 0.08
UAACAGGGGGCCACUGCAGAAGCGUUCACGUCGCAGCCCCUGUCAGAUUCUGGUGAAUCUGCGAAUUCUGCCUUAUCUCUC | 0.78
UAACAGGGGGCCACUGCAGAAGCGUUCACGUCGCAGCCCCUGUCAGAUUCCGGUGAGUCUGCGAAUUCUGCUGUACAUCUC | 0.5
UAACAGGGGGCCACUGCAGAAGCGUUCACGACGCAGCCCCUGUCAGAUUCUGGUGAAUCUGCGAAUUCUGCUGUUUAUCUC | 0.42
UAACAGGGGGCCACUGCAGAAGCGUUCACGUCGCAGCCCCUGACUGAUUCUGGUGAAUCUGCGAAUUCUGCUGUAUAUCUC | 0.33
UAACAGGGGGCCACUGCAGAAGCGUACACGUCGCAGCCCCUGUCAGACUCUGGUGAAUCUGCGAAUUCAGCUGUAUAUCUC | 0.24
UAACAGGGGGCCACUGCAGAAGCGUUCACGUCGCAGCCCCUGUCAGACUCGGGUGGAUCUGCGAAUUCUGCUGUAUAUCUC | 0.25
UAACAGGGGGCCACUGCAGAAGCGUUCACGUCGCAGCCCCUGCCAGAUUCUGGUGAAUCUGCGAGUUCUGCUGUAUAUCAC | 0.18
UAACAGGGGGCCACUGCAGAAGCGUUCACGUCGCAGCCCCUGUCAGAUACUGGUGAAUCUGCGAAUUCUGCCGUAUAUCUC | 0.55
UAACAGGGGGCCACUGCAGAAGCGCUCACGUCGCAGCCCCUGUCAGAUUCCGGUGAAUCUGCGAAUUCUGCUGUAUAUCUC | 0.15
UAACAGGGGGCCACUGCAGAAGCGUACACGUCGCAGCCCCUUUCAGAAUCUGGUGAGUCUGCGAAUUCUGCUGCAUAUCUC | 0.17
UAACAGGGGGCCACUGCAGAAGCGUUCACGUCGCAGCCCCUGCCAAAUUCUGGUGAAUCUGCGAAUACUGCCGUAUAUCCC | 0.16
UAACAGGGGGCCACUGCAGAAGCGUUCACGUCGCAGCCCCAGUCAGAUUCUGGUGAAUCUGCGGGUUCUGCUGUAUAUCUC | 0.16
UAACAGGGGGCCACUGCAGAAGCGUUCACGACGCAGCCCCUGUCAGAUUCUGGUAAAUCUGCGAAUUCUGCUGUAUAUCUC | 0.26
UAACAGGGGGCCACUGCAGAAGCGUCCACGUCGCAGCCCCUGUCAGACCCUGGUGAAUCUGCGAAUUCUGCUGUAUAUCUC | 0.12
UAACAGGGGGCCACUGCAGAAGCGUUCACGCCGCAGCCCCUGUCAAAUUCUGGUGAAUCAGCGAAAUCUGCUGUAUUUCUC | 0.16
UAACAGGGGGCCACUGCAGAAGCGUUCACGUCGCAGCCCCUGUCAGAUUCUGGUGAAUCCGCGAAUUCUGCUGCAUAUCUC | 0.31

Variant | self-cleavage
UAACAGGGGGCCACUGCAGAAGCGUUCACGUCGCAGCCCCCGUCAGAUUAUGGUGAAUCUGCGAAUUCUGCUGUAUAACUC | 0.18
UAACAGGGGGCCACUGCAGAAGCGUUCACGUCGCAGCCCCUGUCAGAUUCUGGCGAAUCUGCGAAUACUGCUGUAUAUCUC | 0.19
UAACAGGGGGCCACUGCAGAAGCGUUCACGUCGCAGCCCCUGUCAGAUUCUGGUGAAUCUGCGAAUUCUGCACUAUAUCUC | 1.28
UAACAGGGGGCCACUGCAGAAGCGUUCACGCCGCAGCCCCUGUCAGAUUCUGGUGUGUCUGCGAAUUCUGCUGUAUUUCUC | 0.06
UAACAGGGGGCCACUGCAGAAGCGUUCACGUCGCAGCCCCUGUCAGAUUCUGGUGAAUCUGCGAAUUCUGCUGUAUAACCC | 0.74
UAACAGGGGGCCACUGCAGAAGCGUUCACGUCGCAGCCCCUGUCAGAUUCUGGUGAAUCUGCGAAUUCUGCGGUAAAUCUC | 0.81
UAACAGGGGGCCACUGCAGAAGCGUUCACGCCGCUGCCCCUGUCAGGUUCUGGUGAAUCUGCGAAUUCUGCUGUAUAUCUC | 0.33
UAACAGGGGGCCACUGCAGAAGCGUUCACGUCGCAGCCCCUGUCAGAUUCAGGUGAAUCUGCGAAAACUGCUGUAUAUCUC | 0.19
UAACAGGGGGCCACUGCAGAAGCGUUCACGUCGCAGCCCCUGUCAGAUUCUGGCGAAUCCGCGAAUUCUGCUGUAUAUCUC | 0.19
UAACAGGGGGCCACUGCAGAAGCGUACACGUCGCUGCCCCCGUCAGAUUCUGCUGAAUCUGCGAAUUCUGCCGUAUAUCUC | 0.23
UAACAGGGGGCCACUGCAGAAGCGCUCACGCCGCAGCCCCUGUCAGAUUCUGGUGGAUCUGCGAAUUCUGCUGUAUAUCAC | 0.41
UAACAGGGGGCCACUGCAGAAGCGUUCACGCCGCAGCCCCUGCCAGAUUCUGGUGGAUCUGCGAAUUCUGCCGUAUAUCUC | 0.15
UAACAGGGGGCCACUGCAGAAGCGUUCACGCCGCAGCCCCUGUCAGAUUCUGGUGAAUCCGCGAAUUCUGCUGUAUAUCUU | 0.15
UAACAGGGGGCCACUGCAGAAGCGUUCACGUCGCAGCCCCUGACAGAUUCUGGUGAAUCUGCGAAUUCUGUUGUAUAUCUC | 0.45
UAACAGGGGGCCACUGCAGAAGCGUUCACGUCGCAGCCCCUGUCAGAUUCUGGUGAAUCUGCGAAUUCGGCUGUAUAUCCC | 0.23
UAACAGGGGGCCACUGCAGAAGCGUCCACGUCGCAGCCCCGGUCAGAUUCUGGUGAUUCUGCGAAUUCUGCUGUAUAUCUC | 0.13
UAACAGGGGGCCACUGCAGAAGCGUCCACGUCGCAGCCCCUGUCAGAUUCUGGUGAGUCUGCGAAUUCUGCUGUAUAUCUC | 0.21
UAACAGGGGGCCACUGCAGAAGCGUUCACGUCGCAGCCCCUGUCAGAUUCAGGUGAAACUGCGAACUCUGCUGUAUAACUC | 0.21
UAACAGGGGGCCACUGCAGAAGCGUUCACGUCGCAGCCCCUGUCAGAUUCUGGUGAAUCUGCGAAUUCUGCUGCAUACCUC | 1.04
UAACAGGGGGCCACUGCAGAAGCGUUCACGUCGCAGCCCCUGUCAGAUCCUGGUGAAUCUGCGAAUUCUGCUGUAUAUCAC | 0.11
UAACAGGGGGCCACUGCAGAAGCGUUCACGUCGCAGCCCCUGUCAGAUUCUGGUGAAUCUGCGAAUUCUGCUGCUUAUCCC | 1.15
UAACAGGGGGCCACUGCAGAAGCGUCCACGUCGCAGCCCCUGUCAGAUUCUGGUGAAUCUGCGAUUUCUGCUGUAUAUCCC | 0.22
